Reference: ChEMBL document CHEMBL4888484, “Replenishing the malaria drug discovery pipeline: Screening and hit evaluation of the MMV Hit Generation Library 1 (HGL1) against asexual blood stage Plasmodium falciparum ,using a nano luciferase reporter read-out” (2022)
Hit rate of the full screen: of about 150,000 compounds, about 540 (0.36%) showed an effect of 50% or more. The list shows a part of the results.

tested on: Plasmodium falciparum; experiment: Primary screen in NF54 nanoGlo assay, in single point, at 2uM, 72h; a lower Z score goes with more inhibition; format: functional, Erythrocyte; conditions: timepoint 72 hour

SMILES | % Inhibition [%] | Z score
Cc1cnn(CCC(=O)N2CC(n3ccnc3C)C2)c1 | -3 | 0.43
CC1(C)CC(=O)c2cn(-c3ccc(Cl)cc3)c(=O)c(C(=O)N3CCCCC3)c2C1 | -12 | 1.34
Brc1cc2c(cc1C(N1CCOCC1)N1CCOCC1)OCO2 | -6 | 1.06
COC(=O)[C@H](Cc1ccccc1)NC(=O)C1CCCc2ccccc21 (stereo partly drawn) | -6 | 1.01
Cc1noc(C)c1C(=O)N1CCC2(CCN(CCC(C)(C)C)CC2)CC1 | -3 | 0.54
O=C(Nc1ccn(CCF)n1)c1ccsc1C(F)(F)F | -8 | 1.17
CC(C(=O)NCC1CCCO1)N1CCCC(Cn2cncn2)C1 (stereo not drawn) | -7 | 0.58
O=C(NC[C@H]1CCCO1)c1ccc(-c2noc(-c3ccccc3)n2)s1 | -5 | 0.66
COC[C@H]1[C@H](NC(=O)CCn2cc(Cl)cn2)[C@H]2CCO[C@H]21 | -11 | 1.23
Cc1nc(-c2cccc(F)c2)nc(N2CCN(C(=O)c3ccc(-c4ccccc4)cc3)CC2)c1Cc1ccccc1 | -3 | 0.49
CC1CC(C)CN(C(=O)CN2CCC3(CC2)OCCO3)C1 (stereo not drawn) | -5 | 0.7
CCOC(=O)c1nnn(-c2nc(OCC)nc(N3CCOCC3)n2)c1-c1ccccc1 | -15 | 2.04
CC(=O)N1c2cc(S(=O)(=O)Nc3ccccc3F)c(Br)cc2C[C@@H]1C | -2 | 0.21
CCC(NC(=O)N1CCC(C)CC1)(C(F)(F)F)C(F)(F)F | 1 | -0.11
COc1nc(OC)nc(-c2ccc(O)cc2)n1 | -11 | 2.02
Cc1nsc(N2CC3C(C2)C3(C)C)n1 (stereo not drawn) | -10 | 1.38
COCc1nsc(N2CCC(OCC3CCCC3)CC2)n1 | -11 | 1.28
CCOc1ccc(CONC(=O)COc2ccc(Cl)cc2Cl)cc1Cl | -6 | 0.8
Cc1oncc1C(=O)N1CC[C@H](Oc2cncc(N(C)C)n2)C1 | -11 | 1.27
CC1CCN(CCn2ccnc2C(C)C)CC1 | -9 | 1.33
O=C(Cn1c(NCCO)nc2ccccc21)c1ccc2c(c1)OCO2 | -12 | 1.08
Cc1nc(-c2cccc(NC(=O)CNC(=O)c3sc4ccccc4c3Cl)c2)cs1 | -2 | 0.34
CC1CCc2sc(C(=O)N3CCC(C(=O)O)C3)cc2C1 (stereo not drawn) | 5 | -0.77
Cc1ccccc1[C@@H](C)C(=O)NCC(=O)N1CCCO1 | -3 | 0.47
C[C@@H]1N(C(=O)C(C)(C)NC(=O)c2ccccc2)CCC12CCOCC2 | -6 | 0.52
Cc1cc2nn(CC(=O)Nc3ccc(C)c(F)c3)c(=O)n2c(Nc2ccc(C)c(F)c2)n1 | -22 | 2.3
Cc1ccnc(N(C)CCc2c(C)n[nH]c2C)n1 | 4 | -0.71

SMILES | % Inhibition [%] | Z score
O=C(COc1ccccc1F)NC(CO)C(O)c1cccnc1 (stereo not drawn) | -13 | 1.72
O=C1NCCC[C@H]1c1ncnn1CC(F)(F)F | -15 | 1.7
Cc1noc(C)c1CN1C(=O)[C@@H]2CC[C@H]1CN(c1nc3ccccc3s1)C2 | 0 | 0.03
CCc1cc(C(=O)NCc2cc(C)nn2C)on1 | -17 | 1.8
OCCN(CCO)C[C@H](O)COc1c(Br)cc(Br)cc1Br | -7 | 1.05
Cc1cc(C(=O)N2CCOC[C@@H](C3CCC3)C2)on1 | 3 | -0.39
O=C(Nc1n[nH]c(Cc2ccc(F)cc2)n1)[C@H](c1ccccc1)n1cnnn1 | -8 | 1.12
OC1(c2cccc(Cl)c2)CCC(NCc2cnc3n2CCCC3)CC1 (stereo not drawn) | -4 | 0.8
Nc1c(NC(=O)Nc2ccc(F)cc2)c(-c2ccccc2)nn1-c1ccccc1Cl | 3 | -0.52
CC(C)[C@@]1(O)CN(Cc2cccc(OCCO)c2)C[C@@H]1C | -16 | 1.38
CN(C)CCNC(=O)c1ccc2c(c1)n(CC1CC1)c(=O)n2C1CCCCC1 | 4 | -0.67
CC(=O)N1CC[C@H](c2nnc(C(C)(C)C)o2)C1 | 11 | -1.28
CC(C)CC(=O)Nc1ccc2c(c1)C(N1CCC(C)CC1)=Nc1ccccc1O2 | 31 | -4.21
Cc1nc2c(C)cccc2cc1C(=O)N1CC[C@H](CS(N)(=O)=O)C1 | -23 | 2.43
O=C(Nc1cc(C(F)(F)F)ccc1N1CCOCC1)c1cccc(S(=O)(=O)N2CCOCC2)c1 | 4 | -0.72
Cc1cc(C)c2c(CC(=O)N3CCc4nocc4C3)coc2c1C | -1 | 0.09
C[C@@H](C(=O)N1CC(=O)Nc2ccccc21)N1CCN(Cc2ccc3c(c2)CCO3)CC1 | -5 | 0.94
COc1ccc(C(=O)NCc2cnc(C)cn2)cc1OC1CCN(C(C)C)CC1 | -14 | 1.29
CNS(=O)(=O)CCNC(=O)Nc1ccc(Cl)cc1C(F)(F)F | 4 | -0.65
COCc1cc(O)n2ncc(S(=O)(=O)c3ccccc3)c2n1 | -3 | 0.32
Cc1cccc(S(=O)(=O)NCC(C)(C)C[C@H](C)O)c1Cl | 3 | -0.45
Cc1nc2ccccc2c(=O)n1C1CCCCCC1 | -4 | 0.59
Cc1nc(CN(CC2CCN(C3Cc4ccccc4C3)CC2)C[C@H]2CCCO2)c[nH]1 | -4 | 0.38
COCC(=O)N[C@@H]1CN(C(=O)c2cccc3cn[nH]c23)C[C@H]1c1ccnn1C | 4 | -0.51
Cc1cc(C)c(C(=O)NC2CN(Cc3ccccc3)CCC2CO)[nH]1 (stereo not drawn) | -6 | 0.97
COC(=O)C1CC(Oc2ccccc2F)CN1C(=O)CCc1c(C)noc1C (stereo not drawn) | -2 | 0.39
Cc1cccc2c1OC[C@@H](NC(=O)N1CCC(CS(C)(=O)=O)CC1)C2 | -6 | 0.71
